Source: the antibiotic and cytotoxicity screens of Wong et al. (2023)
The other results are listed elsewhere or left out.

Tested on: S. aureus RN4220
Experiment: growth inhibition call (relative growth <= 0.2)
Details: 50 µM

Growth inhibition call, inactive:
C[C@H](CO)N1C[C@H](C)[C@@H](CN(C)C(=O)Nc2ccc3c(c2)OCO3)OCCCC[C@H](C)Oc2ccc(NS(=O)(=O)c3ccc(Cl)cc3)cc2C1=O
Cc1noc(C)c1NC(=O)Nc1ccc2c(c1)C(=O)N([C@@H](C)CO)C[C@H](C)[C@@H](CN(C)Cc1ccccc1)OCCCC[C@@H](C)O2
NNC(=O)Oc1ccccc1
C[C@H](O)C#Cc1cnc2c(c1)C(=O)N([C@@H](C)CO)C[C@H](C)[C@@H](CN(C)Cc1cncnc1)O2
C[C@@H]1CN([C@@H](C)CO)C(=O)c2cccc(NC(=O)C3CC3)c2O[C@@H]1CN(C)Cc1ccc2c(c1)OCO2
COc1ccc(NC(=O)N(C)C[C@@H]2OCCCC[C@@H](C)Oc3ccc(NC(=O)NC(C)C)cc3C(=O)N([C@H](C)CO)C[C@@H]2C)cc1
C[C@H](CO)N1C[C@H](C)[C@H](CN(C)C(=O)Nc2ccc(F)cc2)Oc2c(NC(=O)CCCCCC(=O)Nc3ccccc3N)cccc2C1=O
Cc1ccc(S(=O)(=O)Nc2ccc3c(c2)C(=O)N([C@@H](C)CO)C[C@@H](C)[C@H](CN(C)C(=O)Nc2ccccc2)OCCCC[C@@H](C)O3)cc1
CC(=O)N1CCO[C@H]2CCN(C(=O)c3cn(C)cn3)C[C@H]21
C[C@@H]1CN([C@@H](C)CO)S(=O)(=O)c2ccc(C#CCN(C)C)cc2O[C@H]1CN(C)Cc1ccccn1
C[C@@H]1CCCCO[C@@H](CN(C)S(=O)(=O)c2cn(C)cn2)[C@@H](C)CN([C@H](C)CO)C(=O)c2cc(NC(=O)Nc3ccc(C(F)(F)F)cc3)ccc2O1
C[N+](C)(CCOc1ccccc1)Cc1ccccc1.O=C([O-])c1cc2ccccc2cc1O
O=C(/C=C/c1ccc(O)c(O)c1)O[C@H]1[C@H](O)C[C@](OC(=O)/C=C/c2ccc(O)c(O)c2)(C(=O)O)C[C@H]1O
O=C(C[C@H]1C=C[C@@H](NC(=O)c2ccncc2)[C@H](CO)O1)NCc1ccncn1
O=C(C[C@H]1CC[C@H]2[C@@H](COC[C@@H](O)CN2C(=O)c2ccc3c(c2)OCO3)O1)NCCN1CCCCC1
COc1ccc(S(=O)(=O)N2C[C@@H](O)COC[C@@H]3O[C@@H](CC(=O)N[C@H]4CCN(Cc5ccccc5)C4)CC[C@H]32)cc1
C[C@@H]1CCCCO[C@@H](CN(C)CC2CC2)[C@H](C)CN([C@H](C)CO)C(=O)c2cc(NC(=O)Nc3ccc(F)cc3)ccc2O1
O=c1cc(-c2ccccc2)[nH]c(=O)[nH]1
C[C@H]1CN([C@@H](C)CO)C(=O)Cc2cc(N(C)C)ccc2O[C@H]1CN(C)S(=O)(=O)c1ccc(F)cc1
C[C@@H]1CN([C@@H](C)CO)C(=O)c2cc(NC(=O)CCN3CCOCC3)ccc2O[C@H]1CN(C)S(=O)(=O)c1ccc(F)cc1
CS(=O)(=O)N1C[C@@H](O)COC[C@H]2O[C@H](CC(=O)NCc3ccccc3)CC[C@@H]21
COC(=O)c1c2oc(c1C(=O)OC)C(=O)N[C@@H](Cc1ccccc1)Cn1cc(nn1)CNC(=O)[C@H](Cc1ccccc1)NC(=O)N[C@@H](CO)CC2
NC1CCN(C(=O)c2cc3ccccc3[nH]2)CC1
C[C@@H]1CN([C@H](C)CO)C(=O)c2cc(NS(=O)(=O)c3cn(C)cn3)ccc2O[C@H]1CN(C)C(=O)Nc1ccc(F)cc1
COc1ccc(NC(=O)N(C)C[C@H]2OCc3cnnn3CCCC(=O)N([C@@H](C)CO)C[C@H]2C)c(OC)c1
C[C@H](CO)N1C[C@H](C)[C@H](CN(C)C(=O)Nc2ccc(N3CCN(C)CC3)cc2)OCc2cn(nn2)CCCC1=O
COc1ccc(CN(C)C[C@@H]2Oc3ccc(NS(=O)(=O)c4cn(C)cn4)cc3C(=O)N([C@@H](C)CO)C[C@H]2C)cc1
Cc1noc(C)c1NC(=O)N(C)C[C@H]1Oc2c(NS(=O)(=O)c3c(C)noc3C)cccc2C(=O)N([C@@H](C)CO)C[C@H]1C
C[C@H]1CN([C@@H](C)CO)C(=O)c2cc(NC(=O)Cn3cnnn3)ccc2O[C@H]1CN(C)Cc1ccc(C(=O)Nc2ccccc2N)cc1
C[C@H](CO)N1C[C@H](C)[C@@H](CN(C)C(=O)NC2CCCC2)Oc2cc(-c3cncnc3)ccc2S1(=O)=O
C[C@H](CO)N1C[C@H](C)[C@H](CN(C)C(=O)Nc2cccc3ccccc23)OCCCC[C@H](C)Oc2ccc(NC(=O)Cc3ccccc3)cc2C1=O
